Results from the RNAGym collection of RNA variant scans (doi:10.1101/gad.245936.114).
This sample is rich in variants without activity.

B1: tRNA (parent)
chain: CUCUCGGUAGCCAAGUUGGUUUAAGGCGCAAGACUUUAAUUUAUCACUACGAAAUCUUGAGAUCGGGCGUUCGACUCGCCCCCGGGAGAUUUUUUCCUCGAGCAA

Variants of: B1
Assay: nonsense suppression (GFP-seq) (ratio to wild type); higher = more function; SUP4oc tRNA, yeast GFP reporter sort-seq
Procedure, shortened: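 Yeast were grown in raffinose/galactose medium with 80 mg/L adenine, each strain bearing a genome-integrated ochre-suppressor tRNA variant from a ~3% random-mutation library, a galactose-driven GFP ochre reporter, and RFP. After sorting into GFP/RFP bins, every bin was sequenced on an Illumina platform at phred ≥30. The GFPSEQ value, a measure of nonsense suppression, is the weighted bin median GFP/RFP relative to the unmutated parent tRNA, using each variant's estimated cell share per bin as the weight. Only variants with ≥100 reads and ≥30 cells were included.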

Nonsense suppression, ≤ 0.026:
CUGUCGGUAGCCAAGUUGGUUUAAGGCGCAAGACUUUAAUUUAUCACUACGAAAUCUUGAGAUCGCGCGUUCGACCCGCCCCCGGGAGAUUUUUUCCUCGAGCAA [C3G G66C U76C]
CUGUCGGUAGCCAAGUUGGUUUAAGGCGCAAGACUUUAAUUUAUCACUACGAAAUCUUGAGAUCGGACGUUCGACUCGCCGUCGGGAGAUUUUUUCCUCGAGCAA [C3G G67A C81G C82U]
CUGUCGGUAGCCAAGUUGGUUUAAGGCGCAAGACUUUAAUUUAUCACUACGAAAUCUUGAUAUCGGGCGUUCGACUCGCCCCCGGGAGAUUUUUUCCUCGAGCAA [C3G G61U]
CUGUCGGUAGUCAAGUGGGUUUAAGGCGCUAGACUUUAAUUUAUCACUACGAAAUCUUGAGAUCUGGCGUUGGACUCGCCCCCGGGAGAUUUUUUCCUCGAGCAA [C3G C11U U17G A30U G65U C72G]
CUGUCGGUAGCCAAGUUGGUUUAAGGCGCAAGACUUUAAUUUAUCACUACGAAAUCUUGAGAUCGGUCGUUGGACUCGCCCCCGGGAGAUUUUUUCCUCGAGCAA [C3G G67U C72G]
CUGUCGGUAGUCAAGUUGGUUUAAGGCGCAAGACUUUAAUUUAUCACUACGAAAUCUUUAGAUCGGGCGUUCGACUCGCCCCCGCGAGAUUUUUUCCUCGAGCAA [C3G C11U G59U G85C]
CUGUCGGUAGCCAAGUUGGUUUAAGGCGCAAGACUUUAAUUUAUCACUACGAAAUCUUGAGAUGGGGCGUUCGACUCGCCCCCGGAAGAUUUUUUCCUCGAGCAA [C3G C64G G86A]
CUGUCGGUAGCCAAGUUGGUUUAAGGCGCAAGACUUUAAUUUAUCACUACGAAAUCUUGAGAUUGGGCGUUCGACUCGCCCCCGGGAGAUUUUUUCCUCGAGCAA [C3G C64U]
CUGUCGGUAGCCAAGUUGGUUUAAGGCGCAAGACUUUAAUUUAUCACUACGAAAUCUUGAGAUGGGGCGUUCGACUCGCCCCCGGGAGAUUUUUUCCUCGAGCAA [C3G C64G]
CUGUCGGUAGCCAAGUUGGUUUAAGGCGCAAGACUUUAAUUUAUCACUACGAAAUCUUGAGAUAGGGCGUUCGACUCGCCCCCGGGAGAUUUUUUCCUCGAGCAA [C3G C64A]
CUGUCGGUAGCCAAGUUCGAUUAAGGCGCAAGACUUUAAUUUAUCACUACGAAAUCUUGAGAUCGGGCGUUCGACUCGCCCCCGGGAGAUUUUUUCCUCGAGCAA [C3G G18C U20A]
CUGUCAGUAGCCAAGUUGGUUUAAGGCGCAAGACUUUAAUUUAUCACUACGAAAUCUUGAGAUCGGGCGGUCCCCUCGCCCCCGGGAUAUUUUUUCCUCGAGCAA [C3G G6A U70G G73C A74C G88U]
CUGUCGGUAGCCAAGUUGGUUUAAGGCGCAAGACUUUAAUUUAUCACUACGAAAUCUUAACAUCGGGCGUUCGACUCGCCCCCGGCAGAUUUUUUCCUCGAGCAA [C3G G59A G61C G86C]
CUGUCGGUAGCCAAGUUGGUUUAAGGGGCAAGACUUUAAUUUAUCACUACGAAAUCUUGAGAUCGGGCGUUCGACUCGCCCCCGGGAUAUUUUUUCCUCGAGCAA [C3G C27G G88U]
CUGUCGGUAGCCAAGUUGGUUUAAUGCGCAAGACUUUAAUUUAUCACUACGAAAUCUUGAGAUCGGGCGUUCGACUCGCCCCCGUGAAAUUUUUUCCUCGAGCAA [C3G G25U G85U G88A]
CUGUCGUUAGCCAAGUUGGUUUAAGGCGCAAGACUUUAAUUUAUCACUACGAAAUCUUGAGAUCGGGCGUUCGACUCGCCCCCGGGAGAUUUUUUCCUCGAGCAA [C3G G7U]
CUGUCGCUAGCCAAGUUGGUUUAAGGCGCAAGACUUUAAUUUAUCACUACGAAAUCUUGAGAUCGGGCGUUCGACUCGCCCCCGGGAGAUUUUUUCCUCGAGCAA [C3G G7C]
CUGUCGUUAGCCAAGUUGGUUUCAGGCGCAAGACUUUAAUUUAUCACUACGAAAUCUUGAGAUCGGGCGUUCGACUCGCCCCCGGCAGAUUUUUUCCUCGAGCAA [C3G G7U A23C G86C]
CUGUCGGUAGCCAAGUUGGUUUAAGGCGCAAGACUUUAAUUUAUCACUACGAAAUCUUGAGAUCGGGCGUUCGACUAGCCCCCGGGAGAUUUUUUCCUCGAGCAA [C3G C77A]
CUGUCGGUAGCCAAGUUGGUUUAAGGCGCAAGACUUUAAUUUAUCACUACGAAAUCUUGAGAUCGGGCGUUCGACUGGCCCCCGGGAGAUUUUUUCCUCGAGCAA [C3G C77G]
CUGUCGGUAGGCAAGUUGGUUUAAGGCGCAAGACUUUAAUUUAUCACUACGAAAUCUUGAGAUCGGUCGUUCGACUCGCCCCCGGGAGAUUUUUUCCUCGAGCAA [C3G C11G G67U]
CUGUCGGUAGCCAAGUUGGUUUAAGGCGCAAGACUUUAAUUUAUCACUACGAAAUCUUGAGAUCGGGCGUUCGACUCGCCCCGGGGAGCUUUUUUCCUCGAGCAA [C3G C83G A89C]
CUGUCGGUAGCCAAGUUGGUUUAACGCGCAAGACUUUAAUUUAUCACUACGAAAUCUUAAGAUCGGGCGUUCGACUAGCCCCCGCGAGAUUUUUUCCUCGAGCAA [C3G G25C G59A C77A G85C]
CUGUCGGUAGUCAAGUUGGUUUAAGGCGCACGACUUUAAUUUAUCACUACGAAAUCUUGAGAUCGGGCGUUCCGCUCACCCCCGGGAGAUUUUUUCCUCGAGCAA [C3G C11U A31C G73C A74G G78A]
CUGUCGGUAGCCAAGUUGGUUUAAGGCGCAAGACUUUAAUUUAUCACUACGAAAUCUUGAGAUCGGGCGUUCGACUCGCCCCCGGAAGAUUUUUUCCUCGAGCAA [C3G G86A]
CUGUCGGUAGCCAAGUUGGUUUAAGGCGCAAGAAUUUAAUUUAUCACUACGAAAUCUUGAUAUCGGGCGUUCGACUCGCCCCCGGGAGAUUUUUUCCUCGAGCAA [C3G C34A G61U]
CUGUCGGUAGCGAAGUUGGUUUAAGGCGCAAGACUUUAAUUUAUCACUACGAAAUCUUGAGAUCGGGCGUUCAACUCGCCCCCGGGAGAUUUUUUCCUCGAGCAA [C3G C12G G73A]
CUGUCGGUAGCUAAGUUGGUUUAAGGCGCAAGACUUUAAUUUAUCACUACGAAAUCUUGAGAUCGGGCGUUCGACUCGCCCCCGGGAGAUUUUUUCCUCGAGCAA [C3G C12U]
CUGUCGCUAGCCAAGUUGGUUUAAGUCGCACGACUUUAAUUUAUCACUACGAAAUCUUGAGAUCGGGGGUUCGACUCGCCCCCGGGAGAUUUUUUCCUCGAGCAA [C3G G7C G26U A31C C68G]
CUGUCCGUAUCCAAGUUGGUUUAAGGCGCAAGACUUUAAUUUAUCACUACGAAAUCUUGAGAUCGGGCGUUCGACUCGCCCCCGGGAGAUUUUUUCCUCGAGCAA [C3G G6C G10U]
CUGUCGGUAUCCAAGUUGGUUUAAGGCGCAAGACUUUAAUUUAUCACUACGAAAUCUUGAGAUCGGGCGUUCGACUCGCCCCCGGGAGAUUUUUUCCUCGAGCAA [C3G G10U]
CUGUCGGUAGCCAAGUUGGUUUAAGGCGCAAGACUUUAAUUUAUCACUACGAAAUCUUGAGAUCGGGCGUUCGACUCACCCCCGGGAGAUUUUUUCCUCGAGCAA [C3G G78A]
CUGUCGUUAGCCAAGUUGGUUUAACGUGCAAGACUUUAAUUUAUCACUACGAAAUCUUGAGAUCGGACGUUCGACUCGCCCCCGGGAGAUUUUUUCCUCGAGCAA [C3G G7U G25C C27U G67A]
CUGUCGGUAGCCAAGUUGGUUUAACGCUCAAGACUUUAAUUUAUCACUACGAAAUCUUGAGAUCGGGCGUUCGACUCGUCCCCGGGAGAUUUUUUCCUCGAGCAA [C3G G25C G28U C79U]
CUGUCGGUAGCCAAGUUGGUUUAAGGUGCAAGACUUUAAUUUAUCACUACGAAAUCCUAAAAUCGGGCGUUCGACUCGCCCCCGGGAGAUUUUUUCCUCGAGCAA [C3G C27U U57C G59A G61A]
CUGUCGGUAGCCAAGUUGGUUUAAGGCUCAAGGCUUUAAUUUAUCACUACGAAAUCUUGUGAUUGGGCGUUCGACUCGCCCCCGGGAGAUUUUUUCCUCGAGCAA [C3G G28U A33G A60U C64U]
CUGUCGGUAGCCAAGUUGGUUUAAGGCGGAAGACUUUAAUUUAUCACUACGAAUUCUUGAGAUCGGGCGUUCGACUCGCCCCCGGGAGAUUUUUUCCUCGAGCAA [C3G C29G A54U]
CUGUCGGUAGCCAAGUUGGUUUAAGGUGCAAGACUUUAAUUUAUCACUACGAAAUCUUGAGAUCGGGCGUUCGACUCGCCCCCGGGAGAUUUUUUCCUCGAGCAA [C3G C27U]
CUGUCGGUAGCCAAGUUGGUUUAAGGCGCAAGACUUUAAUUUAUCACUACGAAAUCUUGAGAUCGGGCGUUGGACUCGCCCCCGGGAGAUUUUUUCCUCGAGCAA [C3G C72G]
CUGUCGGUAGCCAAGUUGUUUUAAGGCGCAAGCCUUUAAUUUAUCACUACGAAAUCUUGAGAUCGGGCGUUAUACUCGCCCCCGGGAGAUUUUUUCCUCGAGCAA [C3G G19U A33C C72A G73U]
CUGUCGGUAGCCAAGUUGGUUUAAGGCGCAAGACUUUAAUUUAUCACUACGAAAUCUUGAGAUCGGGCGUUCGACUCGCCCCCAGGAGAUUUUUUCCUCGAGCAA [C3G G84A]
CUGUCGGUAGCCAAGUUGGUUUAAGGCGCAAGACUUUAAUUUAUCACUACGAAAUCUUGAGAUCGGGCGUUCGACUCGCCCCCUGGAGAUUUUUUCCUCGAGCAA [C3G G84U]
CUGUCGGUAGCCAAGUUGGUUUAAGGCGCAAGACUUUAAUUUAUCACUACGAAAUCUUGAGAUCGGGCGUUCGACUCGCCCCUGGGAGAUUUUUUCCUCGAGCAA [C3G C83U]
CUGUCGGUAGCCAAGUUGGUUUAAGGCGCAAGACUUUAAUUUAUCACUACGAAAUCUUGAGAUCGGGCGUUCGACUCGCCCCAGGGAGAUUUUUUCCUCGAGCAA [C3G C83A]
CUGUCGGUAGGCAAGUUGGUUUAAGGCGCAAGAUUUUAAUUUAUCACUACGAAAUCUUGAGAUCGGGCGUUCGACUAGCCCCCCGGAGAUUUUUUCCUCGAGCAA [C3G C11G C34U C77A G84C]
CUGUCGUGAGCCAAGUGGGUUUAAGGCGCAAGACUUUAAUUUAUCACUACGAAAUCUUGAGAUCGGGCGUUCGACUCGACCCCGGGAGAUUUUUUCCUCGAGCAA [C3G G7U U8G U17G C79A]
CUGUCGGUAGCCAAGUUGAUUUAAGGCGCAAGACUUUAAUUUAUCACUACGAAAUCUUGAGAUAGGGCGUUCGACUCGCCCCCGGGAGAUUUUUUCCUCGAGCAA [C3G G19A C64A]
CUGUCGGUAGGCAAGUUGGUUUAAGGCGCAAGACUUUAAUUUAUCACUACGAAAUCUUGAGAUCGGGCGUUCGCCUCGUCCCCGGGAGAUUUUUUCCUCGAGCAA [C3G C11G A74C C79U]
CUGUCGGUAGCGAAGUCGGUUUAAGGCGCAAGACUUUAAUUUAUCACUACGAAAUCUUGAGAUCGGGCGUUCGACUCGCCCCCGGGAGAUUUUUUCCUCGAGCAA [C3G C12G U17C]
CUGUCGGUAGCCAAGUUGGUUUAAGACCCAAGACUUUAAUUUAUCACUACGAAAUCUGGAAAUCGGGCGUUCGGCUCGCCCCCGGGAGAUUUUUUCCUCGAGCAA [C3G G26A G28C U58G G61A A74G]
CUGUCGGUAGCCAAGUUGGUUUAAGGCGCAAGACUUUAAUUUAUCACUACGAAAUCUUAAGAUCGGGCGUUCGACUCUCCCCCGGGUGAUUUUUUCCUCGAGCAA [C3G G59A G78U A87U]
CUGUCCGUAGCCAAGCUGGUUUAAGGCGCAAGACUUUAAUUUAUCACUACGAAAUCUUGAGAUCGGGCGUUUGACACGCCCCCGGGAGAUUUUUUCCUCGAGCAA [C3G G6C U16C C72U U76A]
CUGUCGGUAGCCAAGUUGGUUUAAGGCGCAAGACUUUAAUUUAUCACUACGAAAUCUUGAGAUCGGGCGUUCGACUAGCCCCAGGGAGAUUUUUUCCUCGAGCAA [C3G C77A C83A]
CUGUCGGUAGCCAAGUUGGUUUAAGGCGCAAGAUUUUAAUUUAUCACUACGAAAUCUUGAGAUCGGGCGCUCGACUCGCCCCCGGGAGAUUUUUUCCUCGAGCAA [C3G C34U U70C]
